{"source": "PubChem BioAssay AID463173", "about": "(ICCB-Longwood Screening Facility, Harvard Medical School, 2010)", "note": "In all, about 52,000 compounds went through this assay and about 4,300 (8.3%) were called active. No stated cut-off is given here; in the data, active means survival mostly below about 52% (no sharp cut-off); inactive means mostly above about 56%. This is one part of the list.", "data": [{"system": "DeltatarO mutant", "assay": "growth inhibition of S. aureus wild type versus tarO mutant, primary screen, teichoic acid synthesis inhibitors, RN4220, OD600 (AID 463173)", "conditions": "OD600, 18 h, stronger effect = lower value, screened at 18.75 µg/mL (by protocol)", "values": [{"molecule": "Cc1noc(C)c1S(=O)(=O)N(CC(=O)NCCc1ccccc1)c1ccc(C(C)C)cc1", "survival": "inactive: 110%"}, {"molecule": "CCOCCCN1C(=O)c2ccccc2CC1(C)C(=O)NC1CCCCC1", "note": "(centres undefined)", "survival": "inactive: 94%"}, {"molecule": "Cc1cc(C)c(NC(=O)C2CCN(c3nn4c(=O)cc(C)nc4s3)CC2)c(C)c1", "survival": "inactive: 103%"}, {"molecule": "COc1ccc(NCc2cccn2-c2nnc(N3CCCCC3)s2)cc1OC", "survival": "inactive: 73%"}, {"molecule": "Cc1ccc2nc(COc3ccccc3NC(=O)c3ccc(F)cc3)cc(=O)n2c1", "survival": "active: 20%"}, {"molecule": "Cc1cc(C)cc(NC(=O)Cn2cc(C(=O)C3CCCCC3)c3ccccc32)c1", "survival": "inactive: 81%"}, {"molecule": "O=C(CSc1nc2c([nH]c3ccccc32)c(=O)n1-c1ccc(Cl)cc1)c1ccccc1", "survival": "inactive: 94%"}, {"molecule": "Cc1[nH]n(-c2ccc(Cl)cc2)c(=O)c1C(=O)c1ccccc1", "survival": "active: 40%"}, {"molecule": "O=C(CSC1=Nc2ccccc2N=C(c2ccc(F)cc2)C1)Nc1ccccc1", "survival": "inactive: 85%"}, {"molecule": "CCOc1ccc(NS(=O)(=O)c2ccc3c(c2)CCCN3C(=O)C2CCC2)cc1", "survival": "inactive: 67%"}, {"molecule": "COc1ccccc1CNC(=O)c1cn(C)c2ccc(S(=O)(=O)N(C)C3CCCCC3)cc2c1=O", "survival": "inactive: 60%"}, {"molecule": "CCOC(=O)CSc1nc2c(sc3ccccc32)c(=O)n1CCO", "survival": "active: -5%"}, {"molecule": "COc1ccc(OCC(O)Cn2c(NCCO)nc3c2c(=O)n(C)c(=O)n3C)cc1", "note": "(centres undefined)", "survival": "inactive: 76%"}, {"molecule": "Cc1nn(CC(=O)N2CCN(c3ccc(Cl)cc3)CC2)c(=O)c2cccn12", "survival": "inactive: 89%"}, {"molecule": "CCN(CC)CCCNc1ncnc2c1cnn2-c1ccc(C)c(C)c1", "survival": "inactive: 78%"}, {"molecule": "Cc1csc2nc(COc3cccc(NC(=O)c4ccccc4F)c3)cc(=O)n12", "survival": "inactive: 123%"}, {"molecule": "CC1CCCCN1C(=O)c1cc(-c2ccc(Br)cc2)on1", "note": "(centres undefined)", "survival": "inactive: 66%"}, {"molecule": "CCOC(=O)C1CCN(c2nc3c(S(=O)(=O)c4ccc(C)c(C)c4)nnn3c3ccc(Cl)cc23)CC1", "survival": "inactive: 78%"}, {"molecule": "CC1=C(C(=O)N2CCN(c3cccc(Cl)c3)CC2)C2(CCCCC2)OC1=O", "survival": "inactive: 69%"}, {"molecule": "COc1ccc(Cn2c(SCC(=O)N(C)Cc3ccccc3)nc3ccccc32)cc1", "survival": "inactive: 88%"}, {"molecule": "CC(C)(C)C1CCc2oc3ccc(NS(=O)(=O)c4ccc(C(=O)O)cc4)cc3c2C1", "note": "(centres undefined)", "survival": "active: 16%"}, {"molecule": "Cc1ccc(NC(=O)Cn2c(=O)nc(-c3ccccc3)c3ccccc32)cc1F", "survival": "inactive: 95%"}, {"molecule": "COc1ccc(CCNc2ncnc3c2cnn3-c2cc(Cl)ccc2C)cc1", "survival": "inactive: 134%"}, {"molecule": "CC1CCN(S(=O)(=O)c2ccc3c(ccc(=O)n3CC(=O)Nc3cccc(F)c3)c2)CC1", "survival": "inactive: 117%"}, {"molecule": "O=C(Nc1cnc(N2CCN(c3ccccc3)CC2)c(C(=O)O)c1)c1cccs1", "survival": "inactive: 99%"}, {"molecule": "CN1CCc2c(sc3c2C(=O)NC(c2ccc(C(C)(C)C)cc2)N3)C1", "note": "(centres undefined)", "survival": "inactive: 48%"}, {"molecule": "Cc1ccc(NC(=O)c2cc(S(=O)(=O)NCCc3ccc(Cl)cc3)ccc2F)cc1", "survival": "inactive: 80%"}, {"molecule": "CCOc1ccc(NC(=O)Cn2c(=O)n(CCCCCC(=O)NCc3ccccc3)c(=O)c3sccc32)cc1", "survival": "inactive: 48%"}, {"molecule": "Cn1c(C(=O)Nc2ccccc2)cc2sccc21", "survival": "inactive: 63%"}, {"molecule": "CCc1ccc2occ(CC(=O)Nc3c(C(=O)c4ccc(C)cc4)oc4ccccc34)c2c1", "survival": "inactive: 78%"}, {"molecule": "COc1ccc(S(=O)(=O)Nc2c(C)nc3nc[nH]n3c2=O)cc1", "survival": "inactive: 130%"}, {"molecule": "Cc1ccc2c(CNCc3ccc(C)o3)c(C(=O)O)n(Cc3ccccc3C)c2c1", "survival": "inactive: 81%"}, {"molecule": "Cc1ccc(C)c(N2CCN(S(=O)(=O)c3ccc4c(c3)C(C(C)C)C(=O)N4)CC2)c1", "note": "(centres undefined)", "survival": "inactive: 82%"}, {"molecule": "CSc1ncc(C(=O)NCc2ccccc2F)c(-c2ccccc2)n1", "survival": "inactive: 112%"}, {"molecule": "CCCc1ccc(OCC(=O)Nc2sc(C(=O)OCC)c(C)c2C(=O)OCC)cc1", "survival": "inactive: 82%"}, {"molecule": "CCc1ccccc1NS(=O)(=O)c1ccc2[nH]cc(C(=O)N(CC)Cc3ccccc3)c(=O)c2c1", "survival": "inactive: 84%"}, {"molecule": "COc1ccc(C2NC(=O)N(C)C3=C2C(=O)N(c2ccc(C(=O)O)cc2)C3)cc1", "note": "(centres undefined)", "survival": "inactive: 72%"}, {"molecule": "COc1ccc(OC)c(C2CC(=O)Nc3c2c(=O)[nH]c2ncnn32)c1", "note": "(centres undefined)", "survival": "inactive: 68%"}, {"molecule": "CCc1ccc(C2CC(=O)c3c([nH]c(C(=O)OC4CCCC4)c3C)C2)cc1", "note": "(centres undefined)", "survival": "inactive: 97%"}, {"molecule": "COc1cccc(-c2nc(CS(=O)(=O)CC(=O)N3CCN(c4cc(C)ccc4C)CC3)c(C)o2)c1", "survival": "inactive: 104%"}, {"molecule": "CC1CCN(CC(=O)Nc2ccc(S(=O)(=O)N3CCCCC3)cc2)CC1", "survival": "inactive: 100%"}, {"molecule": "CCOC(=O)c1ccc(CN(Cc2ccc(F)cc2)S(=O)(=O)c2ccc(F)c(C(=O)Nc3c(C)cccc3C)c2)cc1", "survival": "inactive: 93%"}, {"molecule": "COc1ccc2c(c1)cc1c(=O)n(CC(=O)NC(C)CCc3ccccc3)nc(C)n12", "note": "(centres undefined)", "survival": "inactive: 119%"}, {"molecule": "O=S(=O)(NCCc1csc2nc(-c3ccccc3)nn12)c1cc(F)ccc1F", "survival": "inactive: 76%"}, {"molecule": "Cc1ccc(-n2ncc3c(Nc4cccc(C(=O)O)c4)ncnc32)cc1", "survival": "inactive: 81%"}, {"molecule": "COC(=O)CSc1nc(C(C)(C)C)cc(C(F)(F)F)n1", "survival": "inactive: 99%"}, {"molecule": "CCCSCCCNC(=O)C1CCN(c2nc3ccccc3nc2C(F)(F)F)CC1", "survival": "active: 0%"}, {"molecule": "CCCCn1cnc2cc(NCc3ccccc3Cl)ccc21", "survival": "active: -16%"}, {"molecule": "COc1ccc(-c2[nH]c(-c3ccc(Cl)cc3)nc2SCC(=O)NCC2CCCO2)cc1", "note": "(centres undefined)", "survival": "inactive: 59%"}, {"molecule": "Cc1ccc(NC(=O)C(=O)NCC(c2cccnc2)N2CCN(Cc3ccccc3)CC2)cc1F", "note": "(centres undefined)", "survival": "inactive: 82%"}, {"molecule": "Cc1cc(C)nc(N(C#N)Cc2ccccc2)n1", "survival": "inactive: 100%"}, {"molecule": "Cc1cc(S(=O)(=O)C(CNC(=O)c2ccc(F)c(F)c2)c2cccs2)ccc1F", "note": "(centres undefined)", "survival": "inactive: 81%"}, {"molecule": "Cc1ccc(S(=O)(=O)n2nc(-c3ccc(Cl)cc3)nc2NCc2ccc(F)cc2)cc1", "survival": "inactive: 75%"}, {"molecule": "CC(=O)N1CCCc2cc(S(=O)(=O)N3CCCC(C(=O)N4CCN(c5ccccc5)CC4)C3)ccc21", "note": "(centres undefined)", "survival": "inactive: 94%"}, {"molecule": "Cc1cc(C)c2c(CC(=O)Nc3ccc(S(=O)(=O)Nc4nc(C)cc(C)n4)cc3)coc2c1", "survival": "inactive: 69%"}, {"molecule": "COc1ccc(CNC(=O)c2cc3cc(OC)ccc3oc2=O)cc1", "survival": "inactive: 51%"}, {"molecule": "CCC(=O)N1CCc2cc(Br)cc(S(=O)(=O)CCC(=O)N3CCN(c4cccc(C)c4)C(C)C3)c21", "note": "(centres undefined)", "survival": "inactive: 65%"}, {"molecule": "CCc1ccc(S(=O)(=O)Nc2ccc3c(c2)n(C)c(=O)c(=O)n3C)cc1", "survival": "inactive: 79%"}, {"molecule": "COc1ccc(C(=O)Nc2ccc3nc(SCC(=O)N4CCc5ccccc54)sc3c2)cc1", "survival": "inactive: 49%"}, {"molecule": "COc1ccc(NC(=O)CCNS(=O)(=O)c2ccc3c(c2)CCCC(=O)N3)cc1Cl", "survival": "inactive: 118%"}, {"molecule": "O=C(Cc1cccs1)NC1CC(=O)N(c2ccc(F)cc2)C1", "note": "(centres undefined)", "survival": "inactive: 99%"}, {"molecule": "Cc1oc(-c2ccc(C(=O)NCc3ccccc3)cc2)nc1CN1CCc2ccccc21", "survival": "inactive: 85%"}, {"molecule": "CC(Sc1ccccn1)C(=O)Nc1ccccc1", "note": "(centres undefined)", "survival": "inactive: 97%"}, {"molecule": "COc1ccc(-c2csc3ncnc(Nc4cccc(OC)c4)c23)cc1", "survival": "inactive: 69%"}, {"molecule": "CC(C)(C)NC(=O)c1c(N)no[n+]1[O-]", "survival": "inactive: 92%"}, {"molecule": "CSc1cccc(NC(=O)Nc2ccccc2OCc2cc(=O)n3cc(C)ccc3n2)c1", "survival": "inactive: 102%"}, {"molecule": "CCOCCCNC(=O)c1ccc(-n2c(-c3ccccc3)cc3c2CCC(C)C3)cc1", "note": "(centres undefined)", "survival": "inactive: 105%"}, {"molecule": "COc1ccc(OCc2ccc(-c3nc(C#N)c(NC(C)c4ccccc4)o3)o2)cc1", "note": "(centres undefined)", "survival": "inactive: 82%"}, {"molecule": "CC1CCCN(S(=O)(=O)Cc2ccccc2)C1", "note": "(centres undefined)", "survival": "inactive: 94%"}, {"molecule": "Cc1nn(CC(=O)Nc2ccc(OC(F)(F)F)cc2)c(=O)c2c(C)n(-c3ccc(Cl)cc3)nc12", "survival": "active: 25%"}, {"molecule": "Cc1cccc(C)c1Nc1c(-c2ccccn2)nc2c(C)cccn12", "survival": "inactive: 51%"}, {"molecule": "CCOc1ccc2nc(N3CCCC(C(=O)NCCc4ccc(OCC)c(OCC)c4)C3)sc2c1", "note": "(centres undefined)", "survival": "inactive: 52%"}, {"molecule": "COc1ccc(CCNC(=O)c2nc(-c3ccc(Cl)cc3)n3c2CCCCC3)c(OC)c1", "survival": "inactive: 94%"}, {"molecule": "Cc1ccc2c(=O)cc(-c3cccc(F)c3)oc2c1", "survival": "inactive: 98%"}, {"molecule": "COC(=O)c1ccccc1NC(=O)C1=CC(c2cccs2)=NS(=O)(=O)N1C", "survival": "inactive: 83%"}, {"molecule": "COc1ccc(-n2nc3cc(C)c(NC(=O)c4ccc(-c5ccc(Cl)cc5)o4)cc3n2)cc1", "survival": "inactive: 45%"}, {"molecule": "Cc1cc(OCC(=O)Nc2cc(-c3nc4ncccc4o3)ccc2C)ccc1Cl", "survival": "inactive: 50%"}, {"molecule": "Oc1cccc(N=Cc2sc(=S)n(C3CCCCC3)c2O)c1", "survival": "inactive: 84%"}, {"molecule": "COc1ccc(C)cc1NC(=O)C1CCN(S(=O)(=O)c2cc(Br)cc3c2N(C(C)=O)CC3)CC1", "survival": "inactive: 76%"}, {"molecule": "CCOC(=O)N1CC=C2C(C#N)=C(N)C(C#N)(C#N)C(c3ccc(CC)cc3)C2C1", "note": "(centres undefined)", "survival": "inactive: 88%"}, {"molecule": "O=C(Cn1c(-c2ccccc2)noc1=O)Nc1cccc(Cl)c1Cl", "survival": "inactive: 98%"}, {"molecule": "COc1ccc(C)c2sc(N3CCN(C(=O)c4cccc(F)c4)CC3)nc12", "survival": "inactive: 128%"}, {"molecule": "CCOc1ccccc1NC(=O)N(Cc1ccc(C)o1)C1CCN(C(C)=O)CC1", "survival": "inactive: 101%"}, {"molecule": "Cc1ccc(-c2cc3ncc4c(n3n2)-c2cc(F)ccc2OC4)cc1", "survival": "inactive: 108%"}, {"molecule": "CCOC(=O)CNC(=O)N1CCCN(S(=O)(=O)c2ccc3c(ccn3CC)c2)CC1", "survival": "inactive: 87%"}, {"molecule": "CCc1nn2c(=O)cc(COC(=O)c3ccccc3)nc2s1", "survival": "inactive: 86%"}, {"molecule": "Cc1ccc(-c2nnc(NC3CCCC3)s2)cc1", "survival": "inactive: 76%"}, {"molecule": "CCn1c(SCc2c(F)cccc2Cl)nc(=O)c2c(C(=O)OC)cc(C3CC3)nc21", "survival": "inactive: 55%"}, {"molecule": "O=C(c1ccccc1Br)N(Cc1ccco1)Cc1ccco1", "survival": "active: 45%"}]}]}
